# The supplement of paper PMC8047034
# Structures can show the parent of a compound that is named as a salt. The list shows a part of the results. Most values come without repeats; read them as rough.
# Experiments:
# [1] = system: OVCAR4; assay: log2 surviving fraction (library drug vs vehicle, or drug + carboplatin vs carboplatin alone; relative to plate median); ovarian cancer lines: OVCAR4 is platinum-sensitive and Ov4Carbo platinum-resistant; higher = more cell survival; conditions: library drug concentration 10 µM, 7 days
# [2] = system: Ov4Carbo; assay: as above; conditions: library drug concentration 10 µM, 7 days
compound,measurement,setting,value
CC(CCc1ccc(O)cc1)NCC(O)c1ccc(O)cc1 (configuration not stated) [Ractopamine HCl],log2 surviving fraction,[1]; carboplatin co-treatment 0 µM,-0.78
same,log2 surviving fraction,[1]; carboplatin co-treatment 5 µM,-0.158
same,log2 surviving fraction,[2]; carboplatin co-treatment 0 µM,-0.354
same,log2 surviving fraction,[2]; carboplatin co-treatment 5 µM,-0.768
Cc1onc(-c2ccccc2)c1C(=O)N[C@@H]1C(=O)N2[C@@H]1SC(C)(C)[C@@H]2C(=O)O [Oxacillin sodium monohydrate],log2 surviving fraction,[1]; carboplatin co-treatment 0 µM,0.637
same,log2 surviving fraction,[1]; carboplatin co-treatment 5 µM,0.426
same,log2 surviving fraction,[2]; carboplatin co-treatment 0 µM,0.218
same,log2 surviving fraction,[2]; carboplatin co-treatment 5 µM,0.558
C[N+](C)(CCOc1ccccc1)Cc1ccccc1.O=C([O-])c1cc2ccccc2cc1O [Bephenium Hydroxynaphthoate],log2 surviving fraction,[1]; carboplatin co-treatment 0 µM,0.275
same,log2 surviving fraction,[1]; carboplatin co-treatment 5 µM,-0.696
same,log2 surviving fraction,[2]; carboplatin co-treatment 0 µM,0.254
same,log2 surviving fraction,[2]; carboplatin co-treatment 5 µM,1.49
CC(=O)Nc1cc([As](=O)(O)O)ccc1O [Acetarsone],log2 surviving fraction,[1]; carboplatin co-treatment 0 µM,-2.67
same,log2 surviving fraction,[1]; carboplatin co-treatment 5 µM,-0.425
same,log2 surviving fraction,[2]; carboplatin co-treatment 0 µM,0.15
same,log2 surviving fraction,[2]; carboplatin co-treatment 5 µM,-0.637
CN1C[C@@H]2C[C@H]1CN2c1cc2c(cc1F)c(=O)c(C(=O)O)cn2C1CC1 [Danofloxacin Mesylate],log2 surviving fraction,[1]; carboplatin co-treatment 0 µM,0.788
same,log2 surviving fraction,[1]; carboplatin co-treatment 5 µM,-0.24
same,log2 surviving fraction,[2]; carboplatin co-treatment 0 µM,0.485
same,log2 surviving fraction,[2]; carboplatin co-treatment 5 µM,-0.286
C[C@H](Cn1cnc2c(N)ncnc21)OCP(=O)(O)O [Tenofovir (Viread)],log2 surviving fraction,[1]; carboplatin co-treatment 0 µM,-0.747
same,log2 surviving fraction,[1]; carboplatin co-treatment 5 µM,-0.806
same,log2 surviving fraction,[2]; carboplatin co-treatment 0 µM,0.835
same,log2 surviving fraction,[2]; carboplatin co-treatment 5 µM,0.701
O=C(O[C@H]1C[N+]2(CCCOc3ccccc3)CCC1CC2)C(O)(c1cccs1)c1cccs1 [Aclidinium Bromide],log2 surviving fraction,[1]; carboplatin co-treatment 0 µM,0.609
same,log2 surviving fraction,[1]; carboplatin co-treatment 5 µM,0.123
same,log2 surviving fraction,[2]; carboplatin co-treatment 0 µM,0.106
same,log2 surviving fraction,[2]; carboplatin co-treatment 5 µM,0.416
NC[C@H]1O[C@H](O[C@H]2[C@H](O)[C@@H](O[C@H]3O[C@H](CO)[C@@H](O)[C@H](N)[C@H]3O)[C@H](N)C[C@@H]2N)[C@H](N)C[C@@H]1O [Tobramycin],log2 surviving fraction,[1]; carboplatin co-treatment 0 µM,-0.000115
same,log2 surviving fraction,[1]; carboplatin co-treatment 5 µM,0.0158
same,log2 surviving fraction,[2]; carboplatin co-treatment 0 µM,-0.181
same,log2 surviving fraction,[2]; carboplatin co-treatment 5 µM,-0.399
COc1ccc(CN(CCN(C)C)c2ccccn2)cc1 [Pyrilamine Maleate],log2 surviving fraction,[1]; carboplatin co-treatment 0 µM,-1.79
same,log2 surviving fraction,[1]; carboplatin co-treatment 5 µM,-7.24
same,log2 surviving fraction,[2]; carboplatin co-treatment 0 µM,0.322
same,log2 surviving fraction,[2]; carboplatin co-treatment 5 µM,0.167
CC(C)(C)CC(C)(C)c1ccc(OCCOCC[N+](C)(C)Cc2ccccc2)cc1 [Benzethonium chloride],log2 surviving fraction,[1]; carboplatin co-treatment 0 µM,-9.71
same,log2 surviving fraction,[1]; carboplatin co-treatment 5 µM,-7.46
same,log2 surviving fraction,[2]; carboplatin co-treatment 0 µM,-8.52
same,log2 surviving fraction,[2]; carboplatin co-treatment 5 µM,-7.7
Fc1ccc([C@@H]2CCNC[C@H]2COc2ccc3c(c2)OCO3)cc1 [Paroxetine HCl],log2 surviving fraction,[1]; carboplatin co-treatment 0 µM,-6.22
same,log2 surviving fraction,[1]; carboplatin co-treatment 5 µM,-5.67
same,log2 surviving fraction,[2]; carboplatin co-treatment 0 µM,-5.5
same,log2 surviving fraction,[2]; carboplatin co-treatment 5 µM,-4.62
COC(=O)[C@H](Cc1ccccc1)NC(=O)[C@@H](N)CC(=O)O [Aspartame],log2 surviving fraction,[1]; carboplatin co-treatment 0 µM,1.61
same,log2 surviving fraction,[1]; carboplatin co-treatment 5 µM,1.33
same,log2 surviving fraction,[2]; carboplatin co-treatment 0 µM,0.308
same,log2 surviving fraction,[2]; carboplatin co-treatment 5 µM,0.846
CCC(CC)[C@H](NC(C)=O)[C@@H]1[C@H](O)[C@@H](C(=O)O)C[C@H]1NC(=N)N [Peramivir Trihydrate],log2 surviving fraction,[1]; carboplatin co-treatment 0 µM,-0.939
same,log2 surviving fraction,[1]; carboplatin co-treatment 5 µM,-0.322
same,log2 surviving fraction,[2]; carboplatin co-treatment 0 µM,0.0236
same,log2 surviving fraction,[2]; carboplatin co-treatment 5 µM,-0.397
C=C1CC[C@@]2(O)[C@H]3Cc4ccc(O)c5c4[C@@]2(CCN3CC2CC2)[C@H]1O5 [Nalmefene HCl],log2 surviving fraction,[1]; carboplatin co-treatment 0 µM,-0.286
same,log2 surviving fraction,[1]; carboplatin co-treatment 5 µM,-0.265
same,log2 surviving fraction,[2]; carboplatin co-treatment 0 µM,-0.24
same,log2 surviving fraction,[2]; carboplatin co-treatment 5 µM,0.0544
O=C([O-])c1ccccc1O.[Na+] [Sodium salicylate],log2 surviving fraction,[1]; carboplatin co-treatment 0 µM,-0.247
same,log2 surviving fraction,[1]; carboplatin co-treatment 5 µM,0.0637
same,log2 surviving fraction,[2]; carboplatin co-treatment 0 µM,-0.141
same,log2 surviving fraction,[2]; carboplatin co-treatment 5 µM,-0.545
Cc1nccn1CC1CCc2c(c3ccccc3n2C)C1=O (configuration not stated) [Ondansetron hydrochloride (Zofran)],log2 surviving fraction,[1]; carboplatin co-treatment 0 µM,0.74
same,log2 surviving fraction,[1]; carboplatin co-treatment 5 µM,0.253
same,log2 surviving fraction,[2]; carboplatin co-treatment 0 µM,0.768
same,log2 surviving fraction,[2]; carboplatin co-treatment 5 µM,0.378
Cc1c(C(=O)NN2CCCCC2)nn(-c2ccc(Cl)cc2Cl)c1-c1ccc(Cl)cc1,log2 surviving fraction,[1]; carboplatin co-treatment 0 µM,-2.81
same,log2 surviving fraction,[1]; carboplatin co-treatment 5 µM,-2.12
same,log2 surviving fraction,[2]; carboplatin co-treatment 0 µM,-2.85
same,log2 surviving fraction,[2]; carboplatin co-treatment 5 µM,-1.75
OCCN(CCO)c1nc(N2CCCCC2)c2nc(N(CCO)CCO)nc(N3CCCCC3)c2n1 [Dipyridamole (Persantine)],log2 surviving fraction,[1]; carboplatin co-treatment 0 µM,-0.599
same,log2 surviving fraction,[1]; carboplatin co-treatment 5 µM,-0.41
same,log2 surviving fraction,[2]; carboplatin co-treatment 0 µM,-0.861
same,log2 surviving fraction,[2]; carboplatin co-treatment 5 µM,-0.378
CCCCc1nc(Cl)c(CO)n1Cc1ccc(-c2ccccc2-c2nnn[nH]2)cc1 [Losartan potassium],log2 surviving fraction,[1]; carboplatin co-treatment 0 µM,0.932
same,log2 surviving fraction,[1]; carboplatin co-treatment 5 µM,1.66
same,log2 surviving fraction,[2]; carboplatin co-treatment 0 µM,-9.59
same,log2 surviving fraction,[2]; carboplatin co-treatment 5 µM,-1.69
CN1CC(=O)N2[C@H](c3ccc4c(c3)OCO4)c3[nH]c4ccccc4c3C[C@@H]2C1=O [Tadalafil (Cialis)],log2 surviving fraction,[1]; carboplatin co-treatment 0 µM,0.263
same,log2 surviving fraction,[1]; carboplatin co-treatment 5 µM,0.366
same,log2 surviving fraction,[2]; carboplatin co-treatment 0 µM,0.506
same,log2 surviving fraction,[2]; carboplatin co-treatment 5 µM,-0.136
O=c1cc[nH]c(=S)[nH]1 [2-Thiouracil],log2 surviving fraction,[1]; carboplatin co-treatment 0 µM,1.15
same,log2 surviving fraction,[1]; carboplatin co-treatment 5 µM,0.201
same,log2 surviving fraction,[2]; carboplatin co-treatment 0 µM,0.419
same,log2 surviving fraction,[2]; carboplatin co-treatment 5 µM,0.936
CCCC(=O)O[C@]1(C(=O)COC(C)=O)CC[C@H]2[C@@H]3C[C@H](F)C4=CC(=O)C=C[C@]4(C)[C@@]3(F)[C@@H](O)C[C@@]21C [Difluprednate],log2 surviving fraction,[1]; carboplatin co-treatment 0 µM,-0.239
same,log2 surviving fraction,[1]; carboplatin co-treatment 5 µM,-0.585
same,log2 surviving fraction,[2]; carboplatin co-treatment 0 µM,1.43
same,log2 surviving fraction,[2]; carboplatin co-treatment 5 µM,-0.125
N=C(N)NC(=O)c1nc(Cl)c(N)nc1N [Amiloride hydrochloride dihydrate],log2 surviving fraction,[1]; carboplatin co-treatment 0 µM,-0.106
same,log2 surviving fraction,[1]; carboplatin co-treatment 5 µM,-0.0733
same,log2 surviving fraction,[2]; carboplatin co-treatment 0 µM,-0.145
same,log2 surviving fraction,[2]; carboplatin co-treatment 5 µM,0.283
CC(=O)Oc1ccc(C(c2ccc(OC(C)=O)cc2)c2ccccn2)cc1 [Bisacodyl],log2 surviving fraction,[1]; carboplatin co-treatment 0 µM,-2.85
same,log2 surviving fraction,[1]; carboplatin co-treatment 5 µM,-3.04
same,log2 surviving fraction,[2]; carboplatin co-treatment 0 µM,-1.08
same,log2 surviving fraction,[2]; carboplatin co-treatment 5 µM,-0.675
COC(=O)C1=C(C)NC(C)=C(C(=O)OC)C1c1ccccc1[N+](=O)[O-] [Nifedipine (Adalat)],log2 surviving fraction,[1]; carboplatin co-treatment 0 µM,0.662
same,log2 surviving fraction,[1]; carboplatin co-treatment 5 µM,0.435
same,log2 surviving fraction,[2]; carboplatin co-treatment 0 µM,-0.0166
same,log2 surviving fraction,[2]; carboplatin co-treatment 5 µM,0.736
Oc1ncnc2[nH]ncc12 [Allopurinol (Zyloprim)],log2 surviving fraction,[1]; carboplatin co-treatment 0 µM,0.807
same,log2 surviving fraction,[1]; carboplatin co-treatment 5 µM,0.562
same,log2 surviving fraction,[2]; carboplatin co-treatment 0 µM,-0.243
same,log2 surviving fraction,[2]; carboplatin co-treatment 5 µM,0.167
"CCOC(=O)C1=C(C)NC(C)=C(C(=O)OCC)C1c1ccccc1/C=C/C(=O)OC(C)(C)C [Lacidipine (Lacipil, Motens)]",log2 surviving fraction,[1]; carboplatin co-treatment 0 µM,-0.0999
same,log2 surviving fraction,[1]; carboplatin co-treatment 5 µM,-0.747
same,log2 surviving fraction,[2]; carboplatin co-treatment 0 µM,0.564
same,log2 surviving fraction,[2]; carboplatin co-treatment 5 µM,-1.86
CC(C)N(CCNC(=O)CN1CCCC1=O)C(C)C [Pramiracetam],log2 surviving fraction,[1]; carboplatin co-treatment 0 µM,0.345
same,log2 surviving fraction,[1]; carboplatin co-treatment 5 µM,0.593
same,log2 surviving fraction,[2]; carboplatin co-treatment 0 µM,0.922
same,log2 surviving fraction,[2]; carboplatin co-treatment 5 µM,0.0614
